Results as given in PMC7819943, “Rice protein-binding microarrays: a tool to detect cis-acting elements near promoter regions in rice”.
Some of the results follow.

biological target: T1, OsWOX13 (Oryza sativa, UniProt Q5QMM3 1-267); test: protein-binding microarray (RPBM); PBS, 2% BSA, 51.3 ng/ul salmon testes DNA, 50 uM zinc acetate, 200 nM TF, 25 C, 1 h; high values mean tight binding; conditions: protein: recombinant; tags: N-terminal polyhistidine and DsRed monomer fusion (pET32a); label: CyDye5-dUTP incorporated in the synthesized complementary strand; 3' TTTTT single-stranded linker to array surface; dsDNA, one strand shown
T1 sequence: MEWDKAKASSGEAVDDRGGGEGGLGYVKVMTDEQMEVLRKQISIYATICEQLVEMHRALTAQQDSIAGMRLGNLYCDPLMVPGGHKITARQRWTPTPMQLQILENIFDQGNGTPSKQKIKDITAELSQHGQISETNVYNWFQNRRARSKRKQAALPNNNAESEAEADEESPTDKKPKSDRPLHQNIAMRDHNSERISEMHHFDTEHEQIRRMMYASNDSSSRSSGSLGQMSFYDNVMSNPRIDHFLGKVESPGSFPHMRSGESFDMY
Procedure, shortened: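 Transcription factors were each fused at the N-terminus to a polyhistidine tag plus DsRed and expressed in E. coli BL21-CodonPlus before Ni–NTA purification. Binding to a double-stranded custom Agilent array was carried out with 200 nM protein at 25 °C for 1 h in PBS, 2% BSA, salmon testes DNA and 50 µM zinc acetate. The binding signal is per-feature fluorescence intensity, in arbitrary units, on an Axon 4000B scanner.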

| Sequence | binding signal |
| --- | --- |
| AACTAATTTAACCCGGTTTTGTAAGTTAGGCGTCACGATTCGGAGTCACCTAGTGCAG | 17600 fluorescence intensity (a.u.) |
| ATCAGGGATGAATTGAATGACAAGAGTAACATACAGGTAGCGGAGTCACCTAGTGCAG | 3580 fluorescence intensity (a.u.) |
| GATTTGAAATTTTCAACTTAGATTTGAAAACTTTCAAGTCCGGAGTCACCTAGTGCAG | 3390 fluorescence intensity (a.u.) |
| GTACTGATTAAAGTGATCAGTTCATCAGTCCACGGCAAACCGGAGTCACCTAGTGCAG | 14300 fluorescence intensity (a.u.) |
| ATGATTTATAAGAATATAATTCGGACTTGACGTCAAGATGCGGAGTCACCTAGTGCAG | 10500 fluorescence intensity (a.u.) |
| AAATTGACATAAATTTGAACAACCCCTTATATCTTTACTTCGGAGTCACCTAGTGCAG | 18700 fluorescence intensity (a.u.) |
| TAACTAATCAATTACTGGCAGAGACGATCAACGAGCGTATCGGAGTCACCTAGTGCAG | 40300 fluorescence intensity (a.u.) |
| AATTAACAGGTGGATCCTCTACAGAATAGGATTATGTTGTCGGAGTCACCTAGTGCAG | 5420 fluorescence intensity (a.u.) |
| TGAATAGATAGATCTTCATGAAACGTCAGTATATGTCACCCGGAGTCACCTAGTGCAG | 6300 fluorescence intensity (a.u.) |
| GGGTTCTAATTAAACATTTAATTTGCCTCTCCATGTAAGTCGGAGTCACCTAGTGCAG | 26100 fluorescence intensity (a.u.) |
| CTTATCACTGACAATCCAATCCGATTTCACCTGGTTGCTTCGGAGTCACCTAGTGCAG | 3180 fluorescence intensity (a.u.) |
| ATTGAGATTTGATTTTCCATCTTCAAAGTCTTTCAAAACTCGGAGTCACCTAGTGCAG | 6780 fluorescence intensity (a.u.) |
| AAACGATTGAAACATTTTCGATATACTTAGTGAAACAATTCGGAGTCACCTAGTGCAG | 4140 fluorescence intensity (a.u.) |
| ATGTAAAATTGGCCGATTAAATATGAAATTACTATACTACCGGAGTCACCTAGTGCAG | 7500 fluorescence intensity (a.u.) |
| GCGTTTTCGGCGGGGAACGCGGGGAGGCGGGTGGGGTTGACGGAGTCACCTAGTGCAG | 5610 fluorescence intensity (a.u.) |
| GAGAGTGGTTAACAAAGTCAATCAGGAGATCCGTAAGACACGGAGTCACCTAGTGCAG | 6890 fluorescence intensity (a.u.) |
| ATTTGCTGATTGCCGAACTGCTACTGAACTGCTGACTACTCGGAGTCACCTAGTGCAG | 20800 fluorescence intensity (a.u.) |
| ATTTGCCGTTTAATTTTATTTTAAATCAAACATTTTAATCCGGAGTCACCTAGTGCAG | 12600 fluorescence intensity (a.u.) |
| TTTATAATTTATGTCTTGAAGCTAGAGCCGTGCCAAACAACGGAGTCACCTAGTGCAG | 3690 fluorescence intensity (a.u.) |
| TCTCTAATTAGGACTCTTTTGACGTGCCTCATCACAGCAGCGGAGTCACCTAGTGCAG | 39700 fluorescence intensity (a.u.) |
| CACATTCAGTTCTAGATTAATTTATTTTGGATGAATGTATCGGAGTCACCTAGTGCAG | 6060 fluorescence intensity (a.u.) |

| Sequence | binding signal |
| --- | --- |
| TCAAAATGTATGATGTCATTGACTTTTCACGTAACGTTTGCGGAGTCACCTAGTGCAG | 3290 fluorescence intensity (a.u.) |
| TATATTAATACTTAATTGATTATATATTGTTTTACGTGCGCGGAGTCACCTAGTGCAG | 38600 fluorescence intensity (a.u.) |
| ATAATTGAAAATTGATTAGAGTACCTTTTGATGAGATAGCCGGAGTCACCTAGTGCAG | 57300 fluorescence intensity (a.u.) |
| CAGATCACTAAACCAATCATCAGCTAACATCGCGGGAGCACGGAGTCACCTAGTGCAG | 4090 fluorescence intensity (a.u.) |
| TTAATTTGTTGTGATTAACGTGGCATGCATGACACTAAAGCGGAGTCACCTAGTGCAG | 26900 fluorescence intensity (a.u.) |
| TACCTAAAAGAACCGCCAATCAACCGCCTTACTCATGTTACGGAGTCACCTAGTGCAG | 3360 fluorescence intensity (a.u.) |
| GAAATTACATATGACAAATCCAGAATTTTGATGGAGTGGTCGGAGTCACCTAGTGCAG | 6770 fluorescence intensity (a.u.) |
| TCACTGACACCAATTAAGGATCGAGTCGACAAGGGAGAAACGGAGTCACCTAGTGCAG | 5910 fluorescence intensity (a.u.) |
| ATAAACGAGCAAATTGATGTGAGATCCACTAGAGAGGAGACGGAGTCACCTAGTGCAG | 15400 fluorescence intensity (a.u.) |
| CACTTAATTGTATACCAATTGAGATTTCCCGCAGTACCACCGGAGTCACCTAGTGCAG | 42200 fluorescence intensity (a.u.) |
| CCTCAAAATTTCGAAAATTGCGCCCGTCTTCCTTCCCTTCCGGAGTCACCTAGTGCAG | 3530 fluorescence intensity (a.u.) |
| CAAAATAAATTTGAACAAAATTTTGCCCAAAATCATGAGACGGAGTCACCTAGTGCAG | 9600 fluorescence intensity (a.u.) |
| GTTTGTCTTAATTGTACATGGAATTTATGAACTAGAAATTCGGAGTCACCTAGTGCAG | 6390 fluorescence intensity (a.u.) |
| TCTATCACTCAATCAAAGAGCACTATAACCCACTTTTACACGGAGTCACCTAGTGCAG | 5680 fluorescence intensity (a.u.) |
| GATTCAATCAAACAGTTATTCCTGTGTTTTGCAATTCTCTCGGAGTCACCTAGTGCAG | 17300 fluorescence intensity (a.u.) |
| TATAAATTTGGACACATATATGAAACACATATATTGATCCCGGAGTCACCTAGTGCAG | 8100 fluorescence intensity (a.u.) |
| GTGGCTGTGATTGTGTGATTGTGTACCTGTTTGTAGTGAACGGAGTCACCTAGTGCAG | 20500 fluorescence intensity (a.u.) |
| CCTCTCGTCCCGTCAATCACAGCACCAACTGCTACCGGCGCGGAGTCACCTAGTGCAG | 28100 fluorescence intensity (a.u.) |
| CTTGATCAATTAACTTAATATGACTGAATTATGCCAATATCGGAGTCACCTAGTGCAG | 38500 fluorescence intensity (a.u.) |
| GCAGGATTATTCCTGATTCATAGATACTAACAAGTGATTCCGGAGTCACCTAGTGCAG | 3180 fluorescence intensity (a.u.) |
| AATTTAATGTAAAATTTAGTACCTAATAGTATCTAGGTATCGGAGTCACCTAGTGCAG | 7910 fluorescence intensity (a.u.) |
